Measurements from PubChem BioAssay AID485281 (National Center for Advancing Translational Sciences (NCATS), 2010).
In all, about 350,000 compounds went through this assay and about 260 (0.074%) were called active. Inconclusive means that the source gave no clear call. Such entries were picked first, then a sample of the others. Calls follow the shape of the dose curve; as a rule, active = well fitted inhibition curve with a large enough effect; inconclusive = small, poorly fitted or top-dose-only effect; inactive = no such curve, though single readings can be large or run the other way. Potencies of inconclusive entries are doubtful fits and often do not repeat.

These molecules were tested against Ferritin light chain (Equus caballus) (UniProt P02791) (assay: qHTS Assay for Identification of Novel General Anesthetics). Settings: apoferritin/1-aminoanthracene competitive binding, fluorescence; series mostly up to 77.5 µM.
UniProt P02791, sequence (P02791 whole entry, looked up): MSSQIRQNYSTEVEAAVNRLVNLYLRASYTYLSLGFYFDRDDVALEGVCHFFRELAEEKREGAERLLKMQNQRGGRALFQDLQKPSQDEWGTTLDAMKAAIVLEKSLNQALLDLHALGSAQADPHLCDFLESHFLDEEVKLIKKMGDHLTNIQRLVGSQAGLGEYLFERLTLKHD
Summary of the method: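 Concentration-response curves derived by four-parameter Hill fitting of normalized fluorescence, where compounds displaced 1-AMA from 10 uM horse apoferritin following a brief 10 min room-temperature incubation; propofol titration acted as positive control.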
Also: nearly all actives have a fitted effect of over 20% in size.
Potency is read from the fitted curve at half-maximal effect; tags tell the direction and shape of the fitted curve.

Structure (SMILES)	Potency
COc1cc2c(cc1OC)C(COc1ccc3c(C)cc(=O)oc3c1)N(C(=O)c1cccc(OC)c1OC)CC2 (stereo not drawn)	inconclusive: 3.55 µM [inhibitor, full curve, poor fit]
COc1cc(C2c3c(n[nH]c3C)C(=O)N2c2ccc(C)cc2)ccc1O (stereo not drawn)	inactive
Cc1ccc(C)c(NC(=O)Cn2nnc(-c3ccc(N4CCOCC4)cc3)n2)c1	inactive
COCCn1nnnc1C(c1ccc(OC)cc1OC)N1CCN(c2ccccc2)CC1 (stereo not drawn)	inconclusive: 25.1 µM [inhibitor, partial curve]
O=C(CCS(=O)(=O)c1ccc(F)cc1)Nc1nc(-c2ccncc2)cs1	inconclusive: 14.1 µM [inhibitor, partial curve]
CCc1cc2c(=O)[nH]c(-c3ccccn3)nc2s1	inactive
CCN1CCN(C(c2ccc(C(F)(F)F)cc2)c2ccc3cccnc3c2O)CC1 (stereo not drawn)	inconclusive: 17.8 µM [inhibitor, single point]
Cc1nc2ccc(S(=O)(=O)N(C)CC(=O)N3CCc4ccccc4C3)cc2s1	inconclusive: 25.1 µM [inhibitor, partial curve]
Cc1ccc(CCN=c2c([N+](=O)[O-])nn(-c3ccccc3)n2O)cc1	inconclusive: 31.6 µM [inhibitor, partial curve]
Cc1c(Cl)cccc1NC(=O)c1ccc2c(c1)nnn2C1CCCC1	inactive
CCC1(c2ccccc2)NC(=O)N(Cc2cccc([N+](=O)[O-])c2)C1=O (stereo not drawn)	inconclusive: 35.5 µM [inhibitor, partial curve]
O=S(=O)(Nc1ccc(Br)cc1)N1CCOCC1	inconclusive: 31.6 µM [inhibitor, partial curve]
CCCCCCOC1(c2ccccc2)OC(=O)c2ccccc21 (stereo not drawn)	inconclusive: 28.2 µM [inhibitor, partial curve]
COc1ccccc1NC(=O)CCCC(=O)OCC(=O)c1ccc(F)cc1	inconclusive: 35.5 µM [inhibitor, single point]
Cc1ccc(C(=O)NCC(=O)OCC(=O)N2CCCc3ccccc32)cc1	inconclusive: 20 µM [inhibitor, partial curve]
Cc1ccc(C(=O)Nc2ncc3c(Cl)cccc3n2)cc1	inconclusive: 35.5 µM [inhibitor, single point]
Cn1c(-c2ccc(Cl)cc2)cnc1NCc1cc2c(cc1[N+](=O)[O-])OCO2	inconclusive: 31.6 µM [inhibitor, partial curve, poor fit]
CC(C)Cn1c(N)c(C(=O)COC(=O)c2cc(F)cc(F)c2)c(=O)n(C)c1=O	inconclusive: 31.6 µM [inhibitor, single point]
O=[N+]([O-])c1cccc(S(=O)(=O)NC2CC3CCC2C3)c1 (stereo not drawn)	inconclusive: 39.8 µM [inhibitor, single point]
Cc1ccc(Cl)cc1NC(=O)c1sc2nc(-c3ccccc3)cn2c1C	inactive
Cc1ccc2c(c1)C1C3CCC(C3)C1S(=O)N2 (stereo not drawn)	inconclusive: 31.6 µM [inhibitor, partial curve]
CCOC(=O)c1ccc(NC(=O)c2nc[nH]c2C(=O)NCCCCCNC(=O)OC(C)(C)C)cc1	inactive

Structure (SMILES)	Potency
Cc1ccc(N(CC(=O)NC2CCCCC2)C(=O)c2ccc(C)s2)cc1	inconclusive: 31.6 µM [inhibitor, partial curve]
Cc1ccc(-c2noc(-c3ccccc3NC(=O)C3CC(=O)N(c4cccc(C)c4)C3)n2)cc1 (stereo not drawn)	inactive
CCc1nc(N(CC)CC)c2oc3ccccc3c2n1	inconclusive: 31.6 µM [inhibitor, partial curve]
COc1cc(NC(=O)Cn2nc(C(F)(F)F)c(Br)c2C)cc([N+](=O)[O-])c1	inconclusive: 56.2 µM [inhibitor, single point]
COc1cccc(NC(=O)Nc2cccn(Cc3ccc(C)cc3)c2=O)c1	inconclusive: 5.62 µM [inhibitor, full curve]
O=C(Cc1ccccc1)Nc1ccc(Br)c(Cl)c1	inconclusive: 15.8 µM [inhibitor, partial curve]
Cc1ccc(OC(=O)c2oc3ccc(F)cc3c2C)c(C)c1	inconclusive: 12.6 µM [inhibitor, partial curve]
CCc1sc(C(=O)NCc2ccco2)cc1Br	inconclusive: 25.1 µM [inhibitor, single point]
CCc1ccc(C2=C(C)C(N3CCC(C(=O)Nc4cccc(OC)c4)CC3)=NS2(=O)=O)cc1	inconclusive: 17.8 µM [inhibitor, partial curve]
CCCOc1ccc(C2C(=O)N(C3CCCCC3)CC(=O)N2CCc2ccccc2)cc1OC (stereo not drawn)	inactive
CCCCCNC(=O)c1cc2c(=O)n3ccccc3nc2n1C	inactive
CCCCNC(=O)C(CC)Sc1nnc(-c2ccc(F)cc2)c(-c2ccc(F)cc2)n1 (stereo not drawn)	inconclusive: 50.1 µM [inhibitor, single point]
COCCn1c(C)cc(C2=NNC(=Nc3ccccc3)SC2)c1C	inconclusive: 15.8 µM [inhibitor, partial curve]
c1ccc2c(NC3C4CC5CC(C4)CC3C5)nc(N3CCOCC3)nc2c1 (stereo not drawn)	inactive
Cc1cc(/C=N/O)c(C)n1-c1ccc(Br)cc1	inconclusive: 31.6 µM [inhibitor, partial curve]
C/C(NC(=O)c1cccs1)=C1\C(=O)C[C@@H]2[C@H]1C2(C)C	inconclusive: 31.6 µM [inhibitor, partial curve]
COc1ccccc1Nc1nc(N)nc(CSC(=S)N2CC(C)CC(C)C2)n1 (stereo not drawn)	inconclusive: 5.62 µM [inhibitor, partial curve]
CC(=O)c1c(C)[nH]c(C(=O)OCC(=O)Nc2ccccc2Cl)c1C	inconclusive: 25.1 µM [inhibitor, partial curve]
COc1ccc(NC(=S)N2CCC(C(=O)c3ccc(C)cc3)CC2)cc1	inconclusive: 17.8 µM [inhibitor, partial curve]
Cc1cccc(N2CCN(Cc3cn(C)nc3-c3ccccc3F)CC2)n1	inactive
CCOc1nc(S(=O)(=O)c2ccc(C)cc2)c(Cl)s1	inconclusive: 35.5 µM [inhibitor, partial curve]
